Here are results for 48 molecules from PubChem BioAssay AID1508642 (National Center for Advancing Translational Sciences (NCATS), 2021).

Molecules are shown by their SMILES. About 200 (0.47%) of roughly 43,000 compounds were called active. Roughly 12% stayed inconclusive and do not appear here. Calls come from the whole dose curve; as a rule, active = well fitted cell-killing curve with a large enough effect; inconclusive = small, poorly fitted or top-dose-only effect, or effect the other way; inactive = flat fitted curve, though single readings scatter. The list shows a part of the results.
% is set by controls: 0 for no effect and ±100 for the full control effect.

This experiment can be described thus: Cell viability qHTS assay in S16 Pmp22-F2sN cells. Note: nearly all actives have a fitted effect of over 65% in size. To be noted: S16 Pmp22-F2sN Schwann cells (luciferase reporters placed in the Pmp22 gene) viability, CellTiter-Glo, 24 h; series mostly up to 57.5 µM; activity change, negative = cytotoxicity: at the top concentration. Put shortly: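 Luminescence from CellTiter-Glo, read by CCD camera after a 15 min room-temperature incubation, served as the viability signal. Reporter Schwann cells (S16 Pmp22-F2sN) had been treated with pin-transferred compounds for 24 h at 37C.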
For orientation: Quantitative high-throughput screening tests each substance at several concentrations.
As for `Cc1ccc(S(=O)(=O)N2CCN(Cc3nc4ccc(C)cc4o3)CC2)c(C)c1`, the “activity change, negative = cytotoxicity” value was inactive: -20.9%. Take `Cc1ccc(-n2c(COCC(=O)O)nc3cccnc32)cc1`: the “activity change, negative = cytotoxicity” value was inactive: 1%.

As for `Cc1ccc(Cl)cc1N1CCN(C(=O)c2cc3c(=O)oc4ccccc4c3s2)CC1`, the “activity change, negative = cytotoxicity” value was inactive: 0.583%. The result for `CCN1CCN(C(c2ccccc2Cl)c2c(O)cc(C)n(CCOC)c2=O)CC1` (stereo not drawn) reads inactive: 5.14%. Consider `Cc1ccc(/C=C(\C#N)C(=O)Nc2cccc(Br)c2)o1`, for which the “activity change, negative = cytotoxicity” value is inactive: 6.79%.

As to `Fc1ccccc1N1CCN(c2nccn3nc(-c4ccc(Br)cc4)cc23)CC1`, the “activity change, negative = cytotoxicity” value is inactive: 2.15%. The same measure for `COc1ccc(CNC(=O)CS(=O)Cc2nc(-c3cccc(C)c3)oc2C)cc1` (stereo not drawn): inactive: 0.807%; for `Cc1ccccc1NC(=O)c1oc2c(c1C)-c1nn(Cc3cccc(Cl)c3)cc1CC2`: inactive: -3.16%. Take `Cc1ccc(S(=O)(=O)NCC2CCC(C(=O)NCCCOC(C)C)CC2)cc1` (stereo not drawn): the “activity change, negative = cytotoxicity” value is inactive: -4.02%.

As to `CCCCN(CC)CCNC(=O)c1cc2c(=O)n(CC)c3ccccc3c2s1`, the “activity change, negative = cytotoxicity” value was inactive: 18.8%. In the case of `CCCCNc1nc2ccccc2c2nc(-c3ccccc3)nn12`, the “activity change, negative = cytotoxicity” value was inactive: -6.17%. Turning to `CC(C)(Oc1ccc(Br)cc1)C(=O)Nc1cc(-c2nc3ccccc3[nH]2)ccc1Cl`, the “activity change, negative = cytotoxicity” value was inactive: 0.0884%.

`O=C(CN1N=C(c2ccc(Cl)cc2)CCC1=O)NCCc1ccccc1`: the “activity change, negative = cytotoxicity” value was inactive: 16.8%. The result for `COc1ccccc1CNC(=O)CN1N=C(c2ccccc2)CCC1=O` reads inactive: -8.94%. Regarding `Cc1ccc(NC(=O)Cn2nc(Cc3ccncc3)c3ccccc3c2=O)c(Cl)c1`, the “activity change, negative = cytotoxicity” value was inactive: 10.5%. Regarding `COc1cc(C(=O)NCC(c2ccc(Cl)cc2)N2CCOCC2)cc(OC)c1OC` (stereo not drawn), the “activity change, negative = cytotoxicity” value was inactive: 0.597%. On to `O=c1cc(-c2ccc(F)cc2)nc(SCc2nc(-c3ccc(Cl)cc3)no2)[nH]1`, for which the “activity change, negative = cytotoxicity” value was inactive: -1.81%.

`CCOC(=O)c1c(C)[nH]c(C)c1S(=O)(=O)NCC(=O)NCc1cccc(C)c1`: the “activity change, negative = cytotoxicity” value was inactive: -2.12%. Consider `CCOC(=O)c1ccc(CN(Cc2ccc(Br)cc2)S(=O)(=O)c2cccc(Cl)c2C)cc1`, for which the “activity change, negative = cytotoxicity” value is inactive: -1.13%. With `CC(=O)c1ccc(NC(=O)CSc2nc(=O)n(Cc3ccncc3)c3c2CCC3)cc1`, the “activity change, negative = cytotoxicity” value was inactive: 2.08%. On to `CCS(=O)(=O)c1ncc(N(Cc2ccco2)Cc2ccccc2F)c(C(=O)Nc2cccc(Cl)c2)n1`, for which the “activity change, negative = cytotoxicity” value was inactive: 6.38%. The result for `O=C(Cn1c(=O)nc(-c2ccccc2)c2ccccc21)NCc1ccccc1Cl` reads inactive: 6.48%; that for `Cc1ccc(N2CCN(C(=O)c3cn(C)c4ccc(S(=O)(=O)N(C)C)cc4c3=O)CC2C)cc1` (stereo not drawn), inactive: 6.34%; that for `CCOC(=O)CC(NC(=O)Cn1nnc(-c2ccccc2F)n1)c1ccccc1Cl` (stereo not drawn), inactive: 2.8%. On to `CCc1ccc(C2C(C(=O)Nc3ccccc3C)=C(C)Nc3nc(SCc4cccc(OC)c4)nn32)cc1` (stereo not drawn), for which the “activity change, negative = cytotoxicity” value is inactive: -3.01%. Consider `CC1CCCCN1CCCNC(=O)CN1C(=O)c2cccnc2Oc2ccccc21` (stereo not drawn), for which the “activity change, negative = cytotoxicity” value is inactive: 17.2%. `COc1ccccc1NC(=O)C1=C(C)Nc2c(C(=O)Nc3cccc(C)c3)cnn2C1c1ccccc1Cl` (stereo not drawn): the “activity change, negative = cytotoxicity” value was inactive: -3.62%. For `Cc1ccc(Cl)cc1NC(=O)CCCn1c(=O)c2cccn2c2cccnc21`, the “activity change, negative = cytotoxicity” value is inactive: 16.4%.

For the molecule `Cc1ccccc1C(=O)N(Cc1sccc1C)C1CCS(=O)(=O)C1` (stereo not drawn), the “activity change, negative = cytotoxicity” value is inactive: 2.11%. For `COc1ccc(CCNC(=O)c2ccc(Cn3c(=O)c4ccccc4n(CC(=O)C(C)(C)C)c3=O)cc2)cc1OC`, the “activity change, negative = cytotoxicity” value is inactive: 20%.

For `COc1cc(NC(=O)CCn2nc(C)c(S(=O)(=O)N3CCCCC3)c2C)cc(OC)c1OC`, the “activity change, negative = cytotoxicity” value was inactive: -10.4%.

`COc1ccc(-c2nc3n(n2)C(c2ccc(OC)c(OC)c2)C(C(=O)Nc2cccnc2)=C(C)N3)cc1` (stereo not drawn): the “activity change, negative = cytotoxicity” value was inactive: 3.45%. With `CCN1CCN(C(c2ccc(SC)cc2)c2c(O)cc(C)n(CCOC)c2=O)CC1` (stereo not drawn), the “activity change, negative = cytotoxicity” value is inactive: 2.11%. With `CCCCN(CC)C(=O)C1CCCN(c2ncnc3onc(C)c23)C1` (stereo not drawn), the “activity change, negative = cytotoxicity” value was inactive: -12%. As for `O=c1oc2ccccc2c(N2CCN(c3ccccc3F)CC2)c1CN1CCCC1`, the “activity change, negative = cytotoxicity” value is inactive: 18.6%.

`Cc1ccc(S(=O)(=O)C(CNC(=O)C(=O)NCCc2ccccc2)c2cccs2)cc1` (stereo not drawn): the “activity change, negative = cytotoxicity” value is inactive: -10.4%.

`CCOc1ccc(C2CC(=O)c3c([nH]c(C(=O)OCC4CCCCC4)c3C)C2)cc1` (stereo not drawn): the “activity change, negative = cytotoxicity” value is inactive: -1.35%. For `COCCCNC(=O)c1nn(-c2ccc(C)cc2)nc1CO`, the “activity change, negative = cytotoxicity” value is inactive: 0.315%. The result for `CCOc1ccccc1NC(=O)CSc1nccn1-c1cccc(C)c1` reads inactive: -3.01%.

As for `COc1ccc2c(Sc3ccc(C)cc3)c(C(=O)NC(C)C)[nH]c2c1`, the “activity change, negative = cytotoxicity” value was inactive: -1.17%. The same measure for `CCOc1ccc(-n2c(=O)c3c(C)c(C)sc3n(CC(=O)NCCc3ccccc3)c2=O)cc1`: inactive: -4.02%; for `O=C(CN1C(=O)CSc2ccc(S(=O)(=O)N3CCCC3)cc21)Nc1cccc(Cl)c1`: inactive: -3.03%; for `COc1cccc(NC(=O)C(Cc2ccccc2)NS(=O)(=O)c2ccc3c(c2)c(=O)n(C)c(=O)n3C)c1` (stereo not drawn): inactive: 24.3%. The same measure for `Cc1cccc(CNC(=O)Cn2ccc3cc(S(=O)(=O)N4CCCCCC4)ccc32)c1`: inactive: -12.6%; for `CCCc1cc(=O)oc2cc(C)c3c(-c4ccccc4)coc3c12`: inactive: 17.9%; for `Cc1ccc(Nc2c(C(C)C)c(C)c(C#N)c3nc4ccccc4n23)cc1`: inactive: -0.665%. Turning to `CCCNC(=O)CN1C(=O)CSc2ccc(S(=O)(=O)N3CCC(C)CC3)cc21`, the “activity change, negative = cytotoxicity” value was inactive: -1.03%. For the molecule `Cc1ccccc1-c1noc(-c2ccc(NCc3ccco3)c([N+](=O)[O-])c2)n1`, the “activity change, negative = cytotoxicity” value was inactive: 10.8%.
